Assay results: the supplement of paper PMC8183993
Counter-ions that a name gives are not always drawn. ± gives the standard deviation of the averaged measurements. The full ranking holds about 3,100 compounds; the median of “mean cytoplasmic OPP incorporation (global translation) relative to DMSO” is about 100, and the lowest 2% start at about 56. The list shows a part of the results.

tested on: U2OS; test: mean cytoplasmic OPP incorporation (global translation) relative to DMSO (% of DMSO); higher = more protein synthesis; details: 10 µM; 24 h
Procedure: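 Primary image-based screen in U2OS cells: compounds at 10 uM for 24 h, then a 1 h o-propargyl-puromycin (OPP) pulse, click labelling, and high-throughput microscopy. Mean cytoplasmic OPP intensity and nuclei count were normalised to DMSO wells within each plate (DMSO = 100) and averaged over triplicate plates.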

Structure (SMILES)	mean cytoplasmic OPP incorporation
C[C@]12C=CC(=O)C=C1CC[C@H]1[C@@H]3C[C@@H](O)[C@](O)(C(=O)CO)[C@@]3(C)C[C@H](O)[C@@]12F [Triamcinolone]	101
C[C@]12C=CC(=O)C=C1CC[C@H]1[C@@H]3C[C@@H](O)[C@](O)(C(=O)CO)[C@@]3(C)C[C@H](O)[C@@]12F [Triamcinolone (Aristocort)]	88.3
CC1(C)O[C@@H]2C[C@H]3[C@@H]4CCC5=CC(=O)CC[C@]5(C)[C@@]4(F)[C@@H](O)C[C@]3(C)[C@]2(C(=O)CCl)O1 [Halcinonide]	109
OCCN1CCN(CCCN2c3ccccc3C=Cc3ccccc32)CC1 [Opipramol dihydrochloride]	110
COc1cccc(Nc2c(C(N)=O)cnc3c(C)cc(S(=O)(=O)c4cccc(C(=O)N(C)C)c4)cc23)c1	114
O=C(O)C=C1CCCc2ccccc2C1O (configuration not stated)	98.2
CC(=O)CCCCn1c(=O)c2c(ncn2C)n(C)c1=O [Pentoxifylline]	94.3
CN1C(=O)OC(C)(C)C1=O [Trimethadione]	101
CN(C/C=C/c1ccccc1)Cc1cccc2ccccc12 [Naftifine hydrochloride]	103
COc1cc2c(cc1OCCCN1CCCC1)N=C(N)C21CCC1	91.2
O=c1c(-c2ccc(O)cc2)coc2cc(O)ccc12 [Daidzein]	103
O=C(O)CCCCC(CCSCc1ccccc1)SCc1ccccc1 (configuration not stated)	99.7
CC(C)NC[C@H](O)COc1cccc2ccccc12 [(S)-(-)-Propranolol hydrochloride]	105
CC(C)NC[C@H](O)COc1cccc2ccccc12 [(S)-propranolol hydrochloride]	115
CC(C)(C)c1nc(-c2cccc(NS(=O)(=O)c3c(F)cccc3F)c2F)c(-c2ccnc(N)n2)s1	119 ± 2.5
C[C@H]1O[C@@H](n2cc(F)c(=O)[nH]c2=O)[C@H](O)[C@@H]1O [Doxifluridine]	99.4
CC(=O)N(OCc1ccccc1)[C@H]1c2cc(C#N)ccc2OC(C)(C)[C@H]1O	95.4
N[C@@H](Cc1cc(CP(=O)(O)O)cc(-c2ccccc2Cl)c1)C(=O)O	103
OCC1OC(n2cnc3c(NC4CCCC4)nc(Cl)nc32)C(O)C1O (configuration not stated) [2-Chloro-N6-cyclopentyladenosine]	116
O=C(O)C1=CO[C@@H](O[C@@H]2O[C@H](CO)[C@@H](O)[C@H](O)[C@H]2O)[C@@H]2C(CO)=CC[C@H]12 [Geniposidic acid]	101
Cc1ccnc(NS(=O)(=O)c2ccc(NC(=O)Nc3ccc(S(=O)(=O)Nc4nccc(C)n4)cc3)cc2)n1	96.2
CCN1CCCC(OC(=O)C(c2ccccc2)c2ccccc2)C1 (configuration not stated) [Piperidolate hydrochloride]	122
CC(C)c1ccc2c(c1)CC[C@H]1[C@](C)(CN)CCC[C@]21C [Lylamine hydrochloride]	122
COc1c(C)c2c(c(O)c1C/C=C(\C)CCC(=O)O)C(=O)OC2 [Mycophenolic acid]	65.8
CS(=O)(=O)c1ccc(-c2cnc(N)c(C(=O)Nc3ccccc3)n2)cc1	115 ± 6.1
NS(=O)(=O)c1cc(Cl)c(Cl)c(S(N)(=O)=O)c1 [Dichlorphenamide]	106

Structure (SMILES)	mean cytoplasmic OPP incorporation
O=C(c1ccc(/C=C/c2n[nH]c3ccccc23)cc1)N1CCNCC1	72.1
C/C(=C\C(=O)Nc1ccccc1C(=O)O)c1ccc2ccccc2c1	93.1
C[C@]12CC[C@@H](O)C[C@@H]1CC[C@@H]1[C@@H]2CC[C@]2(C)C=CC[C@@H]12 [3a, 5a-Androstenol]	97.3
Cc1ccc(-n2sc(=O)n(Cc3ccc(F)cc3)c2=O)cc1	103
Cc1cc(Cl)ccc1OCCCC(=O)NO [Droxinostat]	92.7
O=C(NCCN1CCOCC1)c1ccc(Cl)cc1 [Moclobemide]	91.9
CN(C)CCCSC(=N)N [Dimaprit dihydrochloride]	97.9 ± 1.2
C[C@H](Cc1cc2c(c(C(N)=O)c1)N(CCCO)CC2)NCCOc1ccccc1OCC(F)(F)F [Silodosin (Rapaflo)]	115
C=CCNC(=O)c1cc([N+](=O)[O-])cc2c(=O)[nH]c(Nc3ccc(Cl)c(Cl)c3)nc12	95.4
Cc1onc(-c2c(F)cccc2Cl)c1C(=O)N[C@@H]1C(=O)N2[C@@H]1SC(C)(C)[C@@H]2C(=O)O [Flucloxacillin sodium]	100
CCC[S+]([O-])c1ccc2[nH]c(NC(=O)OC)nc2c1 (configuration not stated) [Albendazole Oxide (Ricobendazole)]	94.4
NC(=O)OCC(COC(N)=O)c1ccccc1 [Felbamate]	103
Cc1ccnc(NS(=O)(=O)c2ccc(N)cc2)n1 [Sulfamerazine]	108
C[C@H]1NC(=O)NC1=O [Methylhydantoin-5-(D)]	97.8
N=C(N)NCc1cccc(I)c1 [Iobenguane sulfate]	93.4
O=C1CCN(c2ccccc2)N1 [Phenidone]	101
CN1CCC(Nc2ncc3ncnc(Nc4ccc(F)c(Cl)c4)c3n2)CC1 [BIBX 1382 dihydrochloride]	102
COC(=O)Nc1ccc(-c2nc(N3CCOCC3)c3cnn(C4CCN(C(=O)OC)CC4)c3n2)cc1	86.5
Nc1ccc(S(=O)(=O)Nc2cnc3ccccc3n2)cc1 [Sulfaquinoxaline sodium salt]	97.1
CNC[C@H](O)[C@@H](O)[C@H](O)[C@H](O)CO [Meglumine]	107
NCCCC(O)(P(=O)(O)O)P(=O)(O)O [Alendronate (Fosamax)]	102
NCCCC(O)(P(=O)(O)O)P(=O)(O)O [Alendronate sodium]	97.3
NCCCC(O)(P(=O)(O)O)P(=O)(O)O [Alendronate]	104
COC(=O)N[C@H](C(=O)N[C@@H](Cc1ccccc1)[C@@H](O)CN(Cc1ccc(-c2ccccn2)cc1)NC(=O)[C@@H](NC(=O)OC)C(C)(C)C)C(C)(C)C [Atazanavir sulfate]	113
N[C@H](C(=O)O)[C@@H]1CC(Cl)=NO1 [Acivicin]	69.7
CC(=O)Oc1ccccc1C(=O)Oc1ccccc1C(=O)O [Acetylsalicylsalicylic acid]	106
